Measured values published in the supplement of paper PMC10369915.
Some of the results follow. Rule as the data show it: active = 3.2 or more and inactive = the rest. Most of these values are background signal.

B1: GRAP2_Y324 (peptide)
chain: LFPANYVAPMT
B2: GRIN2A_Y502_R504W (peptide)
chain: IGEVVYQWAVM
B3: GPR179_Y460 (peptide)
chain: GFAIVYGTIIL
B4: GRIN2D_Y736_M733V_YF (peptide)
chain: SFVVRYNQPRV
B5: GREB1L_Y1560_R1558S_YF (peptide)
chain: PLFSKYWPNHI
B6: GPX4_Y123 (peptide)
chain: EFAAGYNVKFD
B7: GRIN2A_Y1431 (peptide)
chain: EHVMPYAANKN
B8: GRB14_Y347_N349K_YF (peptide)
chain: FGMQLYQKFMH
B9: GRIN2A_Y730_A727T (peptide)
chain: LDTFIYDAAVL
B10: GPX2_Y125_YF (peptide)
chain: KDKLPYPFDDP
B11: GRIN2A_Y730_D731N (peptide)
chain: LDAFIYNAAVL
B12: GRB14_Y347 (peptide)
chain: YGMQLYQNYMH
B13: GRB14_Y347_YF (peptide)
chain: FGMQLYQNFMH
B14: GRIN2B_Y762_G763V (peptide)
chain: FASTGYVIAIQ
B15: GPX2_Y127_P126L (peptide)
chain: KLPYLYDDPFS
B16: GRIN2D_Y732_M733V (peptide)
chain: PDMHSYVVRYN
B17: GRB2_Y7 (peptide)
chain: EAIAKYDFKAT
B18: GRB2_Y7_F9L (peptide)
chain: EAIAKYDLKAT

Biological target: SHP2 C-SH2 domain E139D
Experiment: enrichment score (SH2-bound / input frequency) (ratio); bacterial display of known human phosphotyrosine sites (pTyr-Var adds point mutants) read by sequencing; higher = stronger binding; tyrosines were phosphorylated by kinases first
Details: peptide library: pTyr-Var
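Also: displayed peptides selected on beads carrying the immobilized SH2 domain, with library peptides lacking any tyrosine serving as negative controls.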

| Binder | enrichment score |
| --- | --- |
| B1 | inactive: 1.04 |
| B2 | inactive: 1.12 |
| B3 | inactive: 0.649 |
| B4 | inactive: 1.26 |
| B5 | inactive: 0.767 |
| B6 | inactive: 0.728 |
| B7 | inactive: 0.566 |
| B8 | active: 3.33 |
| B9 | inactive: 1.78 |
| B10 | inactive: 0.719 |
| B11 | inactive: 0.55 |
| B12 | inactive: 2.47 |
| B13 | active: 3.48 |
| B14 | inactive: 1.11 |
| B15 | inactive: 1.04 |
| B16 | inactive: 0.868 |
| B17 | inactive: 0.869 |
| B18 | inactive: 1.3 |

Biological target: SHP2 C-SH2 domain wild-type
Experiment: as above
Details: peptide library: pTyr-Var

| Binder | enrichment score |
| --- | --- |
| B1 | inactive: 1.07 |
| B2 | inactive: 0.927 |
| B3 | inactive: 1.06 |
| B4 | inactive: 0.896 |
| B5 | inactive: 0.779 |
| B6 | inactive: 0.61 |
| B7 | inactive: 0.61 |
| B8 | inactive: 3.01 |
| B9 | inactive: 1.23 |
| B10 | inactive: 0.583 |
| B11 | inactive: 0.566 |
| B12 | inactive: 2.22 |
| B13 | inactive: 2.95 |
| B14 | inactive: 0.883 |
| B15 | inactive: 0.958 |
| B16 | inactive: 0.756 |
| B17 | inactive: 0.58 |
| B18 | inactive: 0.984 |

Biological target: SHP2 N-SH2 domain L43F
Experiment: as above
Details: peptide library: pTyr-Var

| Binder | enrichment score |
| --- | --- |
| B1 | inactive: 0.952 |
| B2 | inactive: 0.95 |
| B3 | inactive: 0.767 |
| B4 | inactive: 1.21 |
| B5 | inactive: 1.21 |
| B6 | inactive: 0.712 |
| B7 | inactive: 0.696 |
| B8 | inactive: 3.04 |
| B9 | inactive: 1.64 |
| B10 | inactive: 0.589 |
| B11 | inactive: 0.78 |
| B12 | inactive: 2.09 |
| B13 | inactive: 2.85 |
| B14 | inactive: 0.889 |
| B15 | inactive: 1.19 |
| B16 | inactive: 0.8 |
| B17 | inactive: 0.88 |
| B18 | inactive: 1.06 |

Biological target: SHP2 N-SH2 domain T42A
Experiment: as above
Details: peptide library: pTyr-Var

| Binder | enrichment score |
| --- | --- |
| B1 | inactive: 1.14 |
| B2 | inactive: 0.814 |
| B3 | inactive: 0.499 |
| B4 | inactive: 0.948 |
| B5 | inactive: 0.729 |
| B6 | inactive: 0.533 |
| B7 | inactive: 0.53 |
| B8 | inactive: 2.65 |
| B9 | inactive: 1.61 |
| B10 | inactive: 0.583 |
| B11 | inactive: 0.608 |
| B12 | inactive: 2.24 |
| B13 | inactive: 3.02 |
| B14 | inactive: 1.19 |
| B15 | inactive: 2.25 |
| B16 | inactive: 0.838 |
| B17 | inactive: 0.758 |
| B18 | inactive: 0.913 |

Biological target: SHP2 N-SH2 domain T52S
Experiment: as above
Details: peptide library: pTyr-Var

| Binder | enrichment score |
| --- | --- |
| B1 | inactive: 1.04 |
| B2 | inactive: 1.05 |
| B3 | inactive: 0.692 |
| B4 | inactive: 0.956 |
| B5 | inactive: 0.928 |
| B6 | inactive: 0.738 |
| B7 | inactive: 0.638 |
| B8 | inactive: 3.12 |
| B9 | inactive: 1.3 |
| B10 | inactive: 0.91 |
| B11 | inactive: 0.624 |
| B12 | inactive: 2.47 |
| B13 | inactive: 2.73 |
| B14 | inactive: 0.843 |
| B15 | inactive: 1.15 |
| B16 | inactive: 0.91 |
| B17 | inactive: 0.659 |
| B18 | inactive: 0.946 |

Biological target: SHP2 N-SH2 domain wild-type
Experiment: as above
Details: peptide library: pTyr-Var

| Binder | enrichment score |
| --- | --- |
| B1 | inactive: 0.877 |
| B2 | inactive: 1.03 |
| B3 | inactive: 1.1 |
| B4 | inactive: 1.06 |
| B5 | inactive: 0.895 |
| B6 | inactive: 0.604 |
| B7 | inactive: 0.651 |
| B8 | inactive: 2.95 |
| B9 | inactive: 1.09 |
| B10 | inactive: 0.563 |
| B11 | inactive: 0.54 |
| B12 | inactive: 2.29 |
| B13 | inactive: 2.84 |
| B14 | inactive: 0.889 |
| B15 | inactive: 1.18 |
| B16 | inactive: 0.733 |
| B17 | inactive: 0.949 |
| B18 | inactive: 1.06 |
